From PubChem BioAssay AID1487 (National Center for Advancing Translational Sciences (NCATS), 2009)
Hit rate of the full screen: of about 200,000 compounds, about 25 (0.01%) were called active. Not shown: some 23% with an inconclusive outcome. The call rests on the fitted dose curve; in most records, active means well fitted inhibition curve with a large enough effect in the signal ratio, with a control signal flat (not every such curve was filed as active); inconclusive means small, poorly fitted or top-dose-only effect, or effect the other way, or a change in a side signal; inactive means flat fitted curve, though single readings scatter; the % refers to the signal ratio. The list shows a part of the results, in another mix than the full data.

Test: qHTS Assay for Modulators of Lamin A Splicing
Conditions: HeLa LMNA splicing GFP/RFP minigene ratio, 48 h; series mostly up to 46.1 µM; ratio change, negative = inhibition: at the top concentration
Description: NCGC Assay Overview: Hutchinson-Gilford Progeria Syndrome (HGPS) is a pediatric premature aging disease caused by a spontaneous mutation in the lamin A/C (LMNA) gene. The mutation activates a cryptic splice site in the LMNA pre-mRNA which results in production of a pre-lamin A protein that cannot be processed properly. The mutant protein accumulates in the nucleus and negatively affects numerous cellular functions. Correction of the splicing defect in HGPS patient cells using a targeted oligonucleotide (exo11) leads to reversal of the cellular disease phenotypes. To identify small molecule modulators of aberrant LMNA splicing, a homogenous assay was constructed in HeLa cells that used a GFP containing minigene to report on correction of aberrant splicing in lamin A and a RFP (DsRed2) to report on cell viability, uniformity and nonspecific effects on the assay signal. This assay was adapted to laser-scanning microplate cytometry (Acumen, TTP Labtech) where miniaturization of the assay to a 1,536-well plate format was possible. References: Bowen, W. P.; Wylie, P. G. Application of Laser-Scanning Fluorescence Microplate Cytometry in High Content Screening. Assay Drug Dev Technol 2006;4:209-221. Scaffidi P, Misteli T. Reversal of the cellular phenotype in the premature aging disease Hutchinson-Gilford progeria syndrome. Nat.
NCGC Assay Protocol Summary: Reagents/Controls: Stable clones expressing DsRed2 and lamin A-EGFP were generated by Cell and Molecular Technologies in S3 HeLa cells. HeLa cells were prepared for the assay when they were 70-90% confluent. The cells were counted and resuspended in Opti-MEM I (no phenol red; Gibco), 2% FBS, 1% penicillin/ streptomycin (Gibco) at concentration of 120 cells/uL concentration. The suspension was passed through a Falcon basket filter with pore size 40um (Beckton Dickson). Control titrations: column […] 1536-well plate contained a sixteen point titration (1:2 dilutions) in duplicate of ancitabine (Sigma: A8598) beginning at 40 uM final concentration. Column 2 contained a sixteen point titration (1:2 dilutions) of cycloheximide beginning at 1.4 mM final concentration. Column 3 contained ancitabine at 40 uM and column 4 contained was the vehicle control (0.5% DMSO final concentration). Assay Steps: 5 uL of HeLa cells were plated in Aurora LoBase black clear bottom (cyclic-olefin polymer) 1536-well plates at a final density of 600 cells/well. Controls and library compounds were added with a 1536-well pin array using the Kalypsys pin-tool. The plates were then incubated for 48 hrs in a cell-culture incubator (37 °C; 5% CO2, 98% humidity). Following incubation the plates were read on the Acumen Explorer using the 488 nm laser. Data was collected on objects between 10 and 100 um in size. Cell objects were defined by a 15 um width x 10 um depth filter. The ratio of the total object intensity in PMT1 (500-530 nm emission; GFP) over PMT3 (575-640 nm emission; RFP) was calculated for analysis. Keywords: NIH Roadmap, MLSCN, MLI, MLSMR, qHTS, NCGC, lamin A, Progeria, RNA splicing.
On the % scale 0 is the no-effect control and ±100 the full control effect.

SMILES | ratio change, negative = inhibition | Potency
CCCN1CCO[C@@H]2c3cc(O)ccc3OC[C@H]21 | inactive: -10.6% | –
Brc1c(NC2=NCCN2)ccc2nccnc12 | inactive: -4.93% | –
CN1C(=O)CCS(=O)(=O)C1c1ccc(Cl)cc1 (configuration not stated) | inactive: -5.04% | –
CN1[C@@H](CC(=O)c2ccccc2)CCC[C@H]1C[C@H](O)c1ccccc1 | – | inactive
COc1ccccc1N1CCNCC1 | inactive: -13% | –
Oc1ccc(Cl)cc1Cc1cc(Cl)ccc1O | inactive: -14.5% | –
CCCC[N+]1(C)C2CC(OC(=O)C(CO)c3ccccc3)CC1C1OC12 (configuration not stated) | inactive: -16% | –
Oc1ccc2c3c1O[C@H]1[C@@H](O)CC[C@@]4(O)C(C2)N(CC2CCC2)CCC314 (some centres not stated) | inactive: -21.9% | –
CCCC(C)(COC(N)=O)COC(=O)NC(C)C (configuration not stated) | inactive: -7.37% | –
COc1cc2c(cc1O)CC1c3c(cc(O)c(OC)c3-2)CCN1C (configuration not stated) | inactive: 5.36% | –
NN=C(N)N | inactive: -13.4% | –
Clc1ccc(C(c2ccc(Cl)cc2)C(Cl)(Cl)Cl)cc1 | inactive: -7.48% | –
OC(c1ccccc1)(c1ccccc1)C1CCNCC1 | inactive: -4.5% | –
CN(C)CCC=C1c2ccccc2CCc2ccccc21 | inactive: -23.8% | –
C[C@]12CC[C@H]3C(=CCc4cc(O)ccc43)[C@@H]1CCC2=O | inactive: 6.94% | –
COC(=O)[C@H]1C[C@@H]1[C@H](NP(=O)(c1ccccc1)c1ccccc1)c1ccccc1 | inactive: -4.55% | –
Oc1ccc(C2NCc3ccccc3-n3cccc32)cc1Cl (configuration not stated) | inactive: -29% [at 46 µM] | –
CC(C)[C@@]1(NC(=O)[C@@H]2C[C@H]3c4cccc5[nH]cc(c45)C[C@@H]3N(C)C2)O[C@]2(O)[C@H]3CCCN3C(=O)[C@H](Cc3ccccc3)N2C1=O | inactive: -16.2% | –
CCC(CO)NC(=O)[C@@H]1C=C2c3cccc4[nH]cc(c34)C[C@H]2N(C)C1 (some centres not stated) | inactive: -17.7% | –
CC[C@H](CO)NC(=O)[C@H]1C=C2c3cccc4[nH]cc(c34)C[C@@H]2N(C)C1 | inactive: -17.4% | –
CC(=O)Nc1cc([As](=O)(O)O)ccc1O | inactive: 13.6% | –
CN(C)C(=O)Oc1ccc[n+](C)c1 | inactive: -2.94% | –
c1ccc(CNc2ncnc3nc[nH]c23)cc1 | inactive: 9.82% | –
CN[C@H](C)[C@H](O)c1ccccc1 | inactive: -6.44% [at 46 µM] | –
C[C@@H](COc1ccccc1)N(CCCl)Cc1ccccc1 | inactive: -7.31% | –
C[C@H]1O[C@H]1P(=O)(O)O | inactive: -0.636% | –

SMILES | ratio change, negative = inhibition | Potency
CC(C)C(=O)Nc1ccc([N+](=O)[O-])c(C(F)(F)F)c1 | inactive: -4.77% | –
CNC(=O)Oc1ccc2c(c1)[C@]1(C)CCN(C)[C@@H]1N2C | – | inactive
CN(C)C(=O)Oc1cccc([N+](C)(C)C)c1 | inactive: -2.3% | –
O=c1[nH]cnc2[nH]ncc12 | inactive: -12.9% | –
CP(=O)(O)CCCN | inactive: 7.09% | –
CN1C2CC(OC(=O)C(CO)c3ccccc3)CC1C1OC12 (configuration not stated) | inactive: -14.1% | –
CC[N+](CC)(CC)CCOc1cccc(OCC[N+](CC)(CC)CC)c1OCC[N+](CC)(CC)CC | inactive: 4.1% | –
O=C(O)c1ccccc1Nc1cccc(C(F)(F)F)c1 | inactive: -13.7% | –
c1ccc2c(c1)Nc1ccccc1S2 | inactive: 0.25% | –
COP(=O)(OC)C(O)C(Cl)(Cl)Cl (configuration not stated) | inactive: 5.07% | –
C[C@]12N[C@@H](Cc3ccccc31)c1ccccc12 | – | inactive
CC(C)C[C@H]1C(=O)N2CCCC2[C@]2(O)O[C@](NC(=O)[C@@H]3C=C4c5cccc6[nH]cc(c56)CC4N(C)C3)(C(C)C)C(=O)N12 (some centres not stated) | inactive: 3.22% | –
Cc1cc(C(C)(C)C)cc(C)c1CC1=NCCN1 | inactive: -3.92% | –
C[C@]12CC[C@H](O)C[C@@H]1CC[C@H]1[C@H]2CC[C@]2(C)C(=O)CC[C@@H]12 | – | inactive
CC(C)C[C@H]1C(=O)N2CCC[C@@H]2[C@]2(O)O[C@](NC(=O)[C@H]3C=C4c5cccc6[nH]c(Br)c(c56)C[C@H]4N(C)C3)(C(C)C)C(=O)N12 | inactive: -14.6% | –
C=CCN1CC[C@]23c4c5ccc(O)c4O[C@@H]2C(=O)CC[C@]3(O)[C@H]1C5 | inactive: -11.4% | –
NCC(CC(=O)O)c1ccc(Cl)cc1 (configuration not stated) | – | inactive
COc1ccc2c(c1OC)C(=O)O[C@H]2[C@H]1c2cc3c(cc2CCN1C)OCO3 | inactive: -2.73% | –
CCC1(C2=NCCN2)Cc2ccccc2O1 (configuration not stated) | inactive: -2.04% | –
COc1ccc2c3c1O[C@H]1C[C@@H](O)C=C[C@@]31CCN(C)C2 | inactive: -5.51% [at 46 µM] | –
O=C(CCCN1CCC2(CC1)C(=O)NCN2c1ccccc1)c1ccc(F)cc1 | inactive: 21.6% | –
COc1cc2ccc(=O)oc2c2ccoc12 | inactive: -7.01% | –
NCC1(CC(=O)O)CCCCC1 | – | inactive
COc1ccc2c(c1OC)C(=O)OC2C1c2cc3c(cc2CCN1C)OCO3 (configuration not stated) | inactive: -21.9% | –
CC(C)c1cccc(C(C)C)c1O | – | inactive
CN1[C@H]2CC(OC(=O)[C@@H](CO)c3ccccc3)C[C@H]1[C@H]1O[C@H]12 (some centres not stated) | inactive: -11.8% | –
